Some of the results follow.

B1: ENSG00000006715:stop:overlap|stop_codon|ENSG00000006715|stop_codon|NA|stop_codon (ssRNA)
RNA: GGGAGUUCUACAGUCCGACGAUCGCAACAUCUGCAGUGCUAAGAACCGUGGACCAGGAAGUGCAAUUUUGGAGAUGAAAAAAUAGCUCAUUUCUCCUUGUCAGUCUCCUUGUCACCACUCUUUUUGAGACUGUUUUUGCAACACAACAGAGGAUUGAGCAUCA
B2: chr8:76983344:76983445:-|CDS|ENSG00000164751|msi1|total|mutant (ssRNA)
RNA: GGGAGUUCUACAGUCCGACGAUCAGCCACCAGUGGCAAAGAAUGCGCUCUAUGUGGAGAGUGGCCCACCAUGCCUCACACCACCGGAUGUGAGCAUAUUUUCUGUUAUUUCUGUGCUAAGAGCCGUUUCUUAUUUGACGUGUACAACAGAGGAUUGAGCAUCA
B3: ENSG00000143815:stop:overlap|stop_codon|ENSG00000143815|stop_codon|NA|stop_codon (ssRNA)
RNA: GGGAGUUCUACAGUCCGACGAUCGAUUGAUUGGAUGGGAACCUCGACAGGACUCCACAAUACAUUUAGUUGUUAUUCCUUCUUAGUCUUCUCUAGUCUAAUAGUUGUUUAGGCUUUCCUUGUCUCUCAUGACCUUGAUACUUUCAACAGAGGAUUGAGCAUCA
B4: chr6:11183581:11183682:-|3pUTR|ENSG00000111859|msi1|FALSE|unique (ssRNA)
RNA: GGGAGUUCUACAGUCCGACGAUCAAAACAAGAAUGCAUGAUCUCAGAGUGAUUAAAAAAAAAUCAGUGGAAAUAAAUGAUCAUAGAAGGUGCUUUUCAAAACAACUGCUAUUAUAAUUCUCAAAGUCCUACUCUGCCAAAAGACAACAGAGGAUUGAGCAUCA
B5: ENSG00000165476:stop:overlap|stop_codon|ENSG00000165476|stop_codon|NA|stop_codon (ssRNA)
RNA: GGGAGUUCUACAGUCCGACGAUCAAGAGGUGCGGUACGGGUCACUAAAAUACAAAGUGAAGAAACGACCACAAGUGUAUUUUUAGUCAUCUACACGUCAAAUAUCCCAAGACAGAUUAUGCUAAAUACAUCGACUUCAUCUUCCAACAGAGGAUUGAGCAUCA
B6: chr3:183812448:183812549:+|3pUTR|ENSG00000163872|msi1|total|mutant (ssRNA)
RNA: GGGAGUUCUACAGUCCGACGAUCUAUUGCAGGUAUCACAGCCUAAAGAAAUUAUCUUUUUGCAAAAGAAAUAUUAAAUGAUUCCGCAGUCUCCACGUGUGUUAAUGUUUCAAACGUGUAUCAUAAUGUGUAUAAUUGUGUAACCAACAGAGGAUUGAGCAUCA
B7: chr21:36896991:36897096:-|CDS|ENSG00000159267|unk|total|mutant (ssRNA)
RNA: GGGAGUUCUACAGUCCGACGAUCCAGUGGCUUGGGAAACAUGUGGACUCCGAGGGAGAAAUAAAAUCCGGCCAGCUCUCUCUCCGAUUUGUUUCAUCCUACGUGUCUGAAGCCGAAAUAACCCCAUCUUGUAUACCUGUGGUGCAACAGAGGAUUGAGCAUCA
B8: chr4:8867047:8867692:-|three_prime_utr|ENSG00000215612|control|control|control (ssRNA)
RNA: GGGAGUUCUACAGUCCGACGAUCGACCCUGUGGACCUGUGUGGACGCGCGAUUCAGCGGCAGGCGCAGGGCUCAGGGGGCGUUAGGGAAGGGAUGGUCGCUCCUGCGGCCUCCUAGAUACCUCGGGAGCGCAGGCCGCGGCCGCAACAGAGGAUUGAGCAUCA
B9: chr1:169690664:169691783:-|three_prime_utr|ENSG00000188404|control|control|control (ssRNA)
RNA: GGGAGUUCUACAGUCCGACGAUCAGUUUUCUUGCAGAUCAAAUUUCACGUCGUCUUCUGUAUACUGUGGAGGUACACUCUUAUAGAAAGUUCAAAAAGUCUACGCUCUCCUUUCUUUCUAACUCCAGUGAAGUAAUGGGGUCCCAACAGAGGAUUGAGCAUCA
B10: chr1:40238196:40238297:+|CDS|ENSG00000117000|msi1|FALSE|unique (ssRNA)
RNA: GGGAGUUCUACAGUCCGACGAUCCGGUAUUCCCCAUUUCAGUGUCAUAUUUGCCAAAGGUCAUUUACAAGAAAAACACACCUUAGGAUUCAUUAUAAAAAUAAACAUCAAAUUGGCAGUGACAGAGCAACUCACAAACUAUUACAACAGAGGAUUGAGCAUCA
B11: chr8:17753977:17754079:-|CDS|ENSG00000129422|unk|total|mutant (ssRNA)
RNA: GGGAGUUCUACAGUCCGACGAUCAAAAAAGCAGAAAUUCUAAUUAACAAGACACAUAAGCAGCAGUUUAAUAAACUCAUUACCCGCCAGGCUGUGCAUGUUACAACUCAUUCUAAAAAUGCUUCACACAGGGUUCCAAGAACACAACAGAGGAUUGAGCAUCA
B12: chr5:181194513:181194614:-|3pUTR|ENSG00000146054|unk|total|mutant (ssRNA)
RNA: GGGAGUUCUACAGUCCGACGAUCUCUUUGAGUGACAAGCCCGGGACAACAGCCAGUGGGCAUCACGGCUCUCCAGCACUCCUCCGCCGGAGGAUACAGAGUGAUGGGUGCAUCCUGACCAAUGCGACAACCAACACGUGCUCUCAACAGAGGAUUGAGCAUCA
B13: chr20:32656575:32657945:-|three_prime_utr|ENSG00000285382|control|control|control (ssRNA)
RNA: GGGAGUUCUACAGUCCGACGAUCAACCUCCACCUCCCAGGUUCAAGGGAUUCUUCUGCCUCAGCCUCCUGAGUAACUGGGAUUAGGGGUGCCCACCACCAUGUCUGGCUAAUUUUUAUAUUUUUAGUAGAGACGGGGUUUUGCCAACAGAGGAUUGAGCAUCA
B14: chr17:35976492:35977731:-|three_prime_utr|ENSG00000275152|control|control|control (ssRNA)
RNA: GGGAGUUCUACAGUCCGACGAUCAUUAUUACAGCAAAGAAUGGUCAACCCCAGCUCCUCAACUCCCAGUGAUGACCAGGCUUUAGUGGAAGCCCUUGUUUACAGAAGAGAGGGGUAAACCUAUGAAAACAGGGGAAGCCUUAUCAACAGAGGAUUGAGCAUCA
B15: ENSG00000115380:stop:overlap|stop_codon|ENSG00000115380|stop_codon|NA|stop_codon (ssRNA)
RNA: GGGAGUUCUACAGUCCGACGAUCGGACCUUCCGCACAAGCUCUGUGUUAAGAUUGACAAUAAUAGUGGGGCCAUUUUCAUUUUAGUCUUUUCUAAGAGUCAACCACAGGCAUUUAAGUCAGCCAAAGAAUAUUGUUACCUUAACAACAGAGGAUUGAGCAUCA
B16: chr12:39553410:39553513:-|3pUTR|ENSG00000173208|unk|total|mutant (ssRNA)
RNA: GGGAGUUCUACAGUCCGACGAUCUAAGAUUCAAACUUUGAGUGACAUUCCGUCCAUUUAUGGUUGAUAUCCGGUUUAACCGCCCGAAUUCAAAUUGAUUAUUGCCCGUGGCCAACUAAACCUGUACAAAACCGCUGACAGUUUCAACAGAGGAUUGAGCAUCA
B17: chr7:20410151:20410448:+|3pUTR|ENSG00000105855|msi1|total|mutant (ssRNA)
RNA: GGGAGUUCUACAGUCCGACGAUCACCCGUGUCGUUGCCGCACUUUACUGUAAUAUAUAACUUAUUCCGAUCAGCACCGAAUGCCGAUCCUCUGAAGAGCACUGAUUACACUUUACAGGUACCUGUUAUCCCUACGCUUCCCAGCAACAGAGGAUUGAGCAUCA
B18: chr3:50258797:50258898:+|3pUTR|ENSG00000114353|msi1|total|mutant (ssRNA)
RNA: GGGAGUUCUACAGUCCGACGAUCGCACAAGAAGCGUGAGACGCCACCAUUCCUGGAAACCACAGUCCACCUGCUCAUUCUCGCCGCUUUUUAAAAAAAUGAAAGUAAAGGAAAAAAAAAAAACUGCAAAUCCCGAAAACUUUUCAACAGAGGAUUGAGCAUCA
B19: ENSG00000013293:stop:overlap|stop_codon|ENSG00000013293|stop_codon|NA|stop_codon (ssRNA)
RNA: GGGAGUUCUACAGUCCGACGAUCAACACAAACAGAACUCAGAGGCCCUGAUUGCAAAUGAUGAGUUAGAUUACUCUCCAGAGUAGGAGAAACACACAAGUGGGUAGAAAUGGUGAUGACUGAUUUUCAGUAACUUAACCUGUGCAACAGAGGAUUGAGCAUCA
B20: chr6:110609977:110614534:-|three_prime_utr|ENSG00000155111|control|control|control (ssRNA)
RNA: GGGAGUUCUACAGUCCGACGAUCAUUUAAAACUCAUACACAUGGGAGGAAAACCUUAUAUACUGAGCAUUGUGCAGGACUGAUAGCUCUUCUUUAUUGACUUAAAGAAGAUUCUUGUGAAGUUUCCCCAGCACCCCUUCCCUGCAACAGAGGAUUGAGCAUCA
B21: chr15:65454262:65454415:-|CDS|ENSG00000074603|control|control|control (ssRNA)
RNA: GGGAGUUCUACAGUCCGACGAUCAAUUGACGAUCAGGUGGAAGGACUCCAAUAUCUAGCUUCUCGAUAUGAUUUCAUUGACUUAGAUCGUGUGGGCAUCCACGGCUGGUCCUAUGGAGGAUACCUCUCCCUGAUGGCAUUAAUCAACAGAGGAUUGAGCAUCA
B22: ENSG00000198589:be:win_2501|CDS|ENSG00000198589|bound_else_gene|NA|bound_elsewhere_windowed (ssRNA)
RNA: GGGAGUUCUACAGUCCGACGAUCAGAGCAUGGAGGUUCGCAGAGCCUUUCUUUCUGACAUGAUUAAACUUUUUAAUAACAGUAGAGAAAACAGGAGGAGCUUGCUACAAUGCUCUGUGUGGCAAGAAUGGAUGCUUUCUCUCUCAACAGAGGAUUGAGCAUCA

For the assay, the target named is T1, UNK ZnF1-6 (called full-length) (human, UniProt Q9C0B0 30-357).
T1 sequence: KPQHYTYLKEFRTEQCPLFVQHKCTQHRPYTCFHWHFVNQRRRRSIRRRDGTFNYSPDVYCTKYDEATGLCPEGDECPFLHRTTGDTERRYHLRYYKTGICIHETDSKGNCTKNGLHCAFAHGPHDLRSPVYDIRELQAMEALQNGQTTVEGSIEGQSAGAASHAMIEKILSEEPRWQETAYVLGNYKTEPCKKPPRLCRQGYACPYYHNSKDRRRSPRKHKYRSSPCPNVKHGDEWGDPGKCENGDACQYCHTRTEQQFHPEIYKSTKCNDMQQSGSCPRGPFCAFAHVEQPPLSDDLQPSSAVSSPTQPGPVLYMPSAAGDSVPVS
Description: nsRBNS (natural sequence RNA bind-n-seq); RBNS binding buffer (assumed for nsRBNS): 25 mM Tris pH 7.5, 150 mM KCl, 3 mM MgCl2, 0.01% Triton X-100, 500 ug/ml BSA, 20 U/ml SUPERase-In, 4 C; UNK is unkempt and MSI1 is Musashi-1; names of the RNAs are library labels; protein concentration not given here; high values mean tight binding.
In turn, B1 came in with a binding signal of 0.735 enrichment R.
As for B2, the figure is 0.468 enrichment R; as for B3, 0.522 enrichment R; as for B4, 0.386 enrichment R.
The figure for B5 is 0.648 enrichment R.
As for B6, the figure is 0.41 enrichment R; as for B7, 0.663 enrichment R; as for B8, 0.682 enrichment R.
For B9, the binding signal was determined as 0.51 enrichment R.
Molecule B10 registered a binding signal of 1.3 enrichment R.
Molecule B11 showed a binding signal of 0.339 enrichment R.
The figure for B12 is 0.519 enrichment R; for B13 it is 1.28 enrichment R.
Regarding B14, the binding signal was determined as 0.777 enrichment R.
Turning to B15, the binding signal came out at 0.485 enrichment R.
As for B16, the figure is 0.231 enrichment R; as for B17, 0.518 enrichment R.
In turn, B18 returned a binding signal of 0.636 enrichment R.
The figure for B19 is 0.921 enrichment R; for B20 it is 0.328 enrichment R; for B21 it is 1.03 enrichment R.
With B22, the binding signal stood at 0.506 enrichment R.

(Values after publication PMC12136788.)
